This test deals with mice, ADJ-PC-20 plasma cell tumor sc, T/C %. The test is described as follows: NCI In Vivo Anticancer Drug Screen. Data for tumor model ADJ-PC-20 Plasma Cell (subcutaneous) in unknown mice. The conditions noted are these: endpoint: mean tumor weight, higher = larger tumour. As for the experimental part:
The antitumor activity of compounds was measured in mice bearing transplantable tumors. Survival or tumor size were measured and the results are expressed as the measurement made in the treated group (T) divided by the measurement made in the vehicle treated control group (C). The tumor model used in this assay is ADJ-PC-20 Plasma Cell (subcutaneous) in unknown mice

Molecules are shown by their SMILES. Records with an inconclusive call do not appear. Certain results were filed several times, with different values. This list holds those alone. There may be further records. Values that stand side by side do not match, cause unknown; they may come from other doses, times, organisms or constructs than stated.

Take `O=P1(N(CCCl)CCCl)NCCCO1` (stereo unspecified): the T/C (dose: 6.3 mg/kg/injection, schedule: Q01DX010 (ip), vehicle: saline) is given as 22 % of control, 30 % of control, 87 % of control.

With `C[C@]12C=CC(=O)C=C1CC[C@@H]1[C@@H]2C(=O)C[C@@]2(C)[C@H]1CC[C@]2(O)C(=O)CO`, the T/C is, setting by setting: (dose: 25.0 mg/kg/injection, schedule: Q01DX010 (sc), vehicle: steriod suspending solution) 30 % of control, 44 % of control, 56 % of control; (dose: 50.0 mg/kg/injection, schedule: Q01DX010 (sc), vehicle: steriod suspending solution) 8 % of control, 40 % of control, 41 % of control.

Regarding `CCN(CC)CCNc1ccc(C)c2sc3ccccc3c(=O)c12`, the T/C by setting is: (dose: 12.5 mg/kg/injection, schedule: Q01DX010 (ip), vehicle: methylcellulose (MC)) 25 % of control and 98 % of control; (dose: 25.0 mg/kg/injection, schedule: Q01DX010 (ip), vehicle: methylcellulose (MC)) 7 % of control and 75 % of control; (dose: 50.0 mg/kg/injection, schedule: Q01DX010 (ip), vehicle: methylcellulose (MC)) 2 % of control and 84 % of control.

Values taken from PubChem BioAssay AID332 (DTP/NCI, 2004).
